Results as given in the supplement of paper PMC10126150.
Values marked as one replicate rest on one cluster of the flow cell; about a third of the high ones do not repeat.

Tested on: ATP
Assay: switch fluorescence ratio, 500 uM ATP over buffer (Cy3 cluster intensity, sum of 5 cycles each) (fold (ratio)); higher = stronger signal-on switching upon ATP binding; sequences stand for … in TCGTCGGCAGCGTCAGATGTGTATAAGAGACAGTTTTTTTTTTTTTTTTTTTTTTTTT…TC
Conditions: aptamer strand: ATP DNA aptamer (quencher-CACCTGGGGGAGTATTGCGGAGGAAGG + anchor), 100 nM annealed; ATP concentration: 500 uM; one replicate
Method in brief: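 Clusters carrying Cy3-labelled switching strands on a modified Illumina MiSeq flow-cell were annealed to 100 nM quencher-labelled ATP aptamer and imaged in selection buffer. They were imaged again after 15 min with 500 uM ATP at 22 °C, over five buffer/ATP cycles with NaOH stripping and re-annealing in between. For each cluster, the fluorescence ratio is the summed Cy3 intensity of the target cycles divided by that of the buffer cycles, averaged per switch-domain sequence. Clusters outside 100-1000 RFU were left out.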
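Also: ATP exposure 15 min at 22 °C before imaging.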

In the case of ATACGCTGT, the switch fluorescence ratio was 1.06.
TGTATTCCTT was tested, and the switch fluorescence ratio was 0.999.
Sequence TAGGAGTGTG has a switch fluorescence ratio of 1.25.
TCCTCTTCAA was tested, and the switch fluorescence ratio was 1.04.
In the case of TAAGATTAGA, the switch fluorescence ratio was 1.02.
Work on TATCGCAACG yielded a switch fluorescence ratio of 1.06.
In the case of CGCCGCCTTT, the switch fluorescence ratio was 1.22.
With ATAGATATG the switch fluorescence ratio was 1.01.
Sequence GGACCTTTAG has a switch fluorescence ratio of 0.99.
CTCGCGAAAG gave a switch fluorescence ratio of 1.23.
Work on ATTTCAGGTG yielded a switch fluorescence ratio of 3.59.
ACGGTCTGCC showed a switch fluorescence ratio of 1.01.
CTATAATGAT showed a switch fluorescence ratio of 1.02.
With CATAAGTAAA the switch fluorescence ratio was 0.996.
With ATGGCATTCT the switch fluorescence ratio was 0.957.
GATGAAGCTT was tested, and the switch fluorescence ratio was 1.01.
With AAGGGAATTG the switch fluorescence ratio was 0.991.
In the case of CGTAATTTA, the switch fluorescence ratio was 1.01.
Sequence CGGTGATCTC has a switch fluorescence ratio of 0.991.
Work on TTGACGACAA yielded a switch fluorescence ratio of 1.14.
For TTTGTCTCCA, the switch fluorescence ratio was 1.
GCAAGCGGTA gave a switch fluorescence ratio of 0.943.
TCAACATATA showed a switch fluorescence ratio of 1.11.
With TTAGGCG the switch fluorescence ratio was 0.976.
AGCCATGTTG gave a switch fluorescence ratio of 1.01.
With TTAAACGATG the switch fluorescence ratio was 0.919.
CATGAAATTT was tested, and the switch fluorescence ratio was 0.989.
ATTCAA gave a switch fluorescence ratio of 0.992.
With GCAGTGCAGT the switch fluorescence ratio was 0.958.
ATGGTGTCTG was tested, and the switch fluorescence ratio was 0.983.
Work on GCCACAATCG yielded a switch fluorescence ratio of 1.07.
For ACGGGCAGTC, the switch fluorescence ratio was 1.04.
Work on CAGCACATAT yielded a switch fluorescence ratio of 2.44.
In the case of TCGTATTTGA, the switch fluorescence ratio was 0.99.
In the case of ATTTACGCAT, the switch fluorescence ratio was 1.26.
GGGTCAAGGT gave a switch fluorescence ratio of 0.972.
TGACTCATAA was tested, and the switch fluorescence ratio was 1.08.
CAGTTTGGAT gave a switch fluorescence ratio of 0.993.
ACGATAGTGC gave a switch fluorescence ratio of 1.
CGGCTTAGCA was tested, and the switch fluorescence ratio was 1.01.
CCACATTACC gave a switch fluorescence ratio of 1.52.
Sequence TTCTGTA has a switch fluorescence ratio of 0.973.
With AAATTAGCGC the switch fluorescence ratio was 0.974.
For TATACGT, the switch fluorescence ratio was 1.04.
With TGTAATGATC the switch fluorescence ratio was 1.09.
With CCCTATTAAG the switch fluorescence ratio was 1.02.
AACTCTGACG gave a switch fluorescence ratio of 1.02.
GCGAAGAAGC was tested, and the switch fluorescence ratio was 1.03.
AAAAGGAAAC was tested, and the switch fluorescence ratio was 0.98.
For TAGAATTGGA, the switch fluorescence ratio was 1.05.
In the case of ATAAAGGGC, the switch fluorescence ratio was 1.01.
For CCTCATTCAA, the switch fluorescence ratio was 4.73.
For AATAAAACAC, the switch fluorescence ratio was 1.03.
ACTCTCGCTG was tested, and the switch fluorescence ratio was 1.62.
Sequence TCAGTTTTGG has a switch fluorescence ratio of 0.972.
With GGCTGTAGTG the switch fluorescence ratio was 1.01.
Sequence ATCAGGCTGG has a switch fluorescence ratio of 0.95.
Sequence TCGAAACACC has a switch fluorescence ratio of 1.04.
TATGGCGCTT showed a switch fluorescence ratio of 1.01.
For GATTGATGTA, the switch fluorescence ratio was 0.967.
In the case of TGCCCCGATC, the switch fluorescence ratio was 1.09.
With GGTCTGTTGC the switch fluorescence ratio was 0.998.
With CGTTGTTGAT the switch fluorescence ratio was 0.97.
In the case of GCTCGGGGG, the switch fluorescence ratio was 0.958.
GGTGGCAGCT showed a switch fluorescence ratio of 0.944.
With CGTATGGGAT the switch fluorescence ratio was 0.966.
In the case of CCTGAGAATG, the switch fluorescence ratio was 1.03.
In the case of TGACACTTGT, the switch fluorescence ratio was 0.985.
Work on GGTGCAAGTG yielded a switch fluorescence ratio of 0.967.
Sequence CATATAATCG has a switch fluorescence ratio of 0.965.
Work on ACCTACTGGA yielded a switch fluorescence ratio of 1.27.
TAAATATCAT was tested, and the switch fluorescence ratio was 0.96.
With GTACGGTAGG the switch fluorescence ratio was 1.02.
In the case of TCTGGTTAAC, the switch fluorescence ratio was 0.991.
CGACGGCAAG was tested, and the switch fluorescence ratio was 1.32.
With CTGCACGCGG the switch fluorescence ratio was 1.21.
For CCCGTGTTCT, the switch fluorescence ratio was 1.01.
Sequence AACGGACAGA has a switch fluorescence ratio of 1.37.
In the case of GGGCTACTAT, the switch fluorescence ratio was 1.08.
For TTTGTAAGCG, the switch fluorescence ratio was 1.04.
GCAAACCGAT gave a switch fluorescence ratio of 1.1.
TGAAGGGACT showed a switch fluorescence ratio of 1.01.
GACCGATGAC was tested, and the switch fluorescence ratio was 1.32.
ACACTTCTGC gave a switch fluorescence ratio of 1.05.
Work on AGGGGAGATT yielded a switch fluorescence ratio of 0.969.
CACCCGTTGT was tested, and the switch fluorescence ratio was 1.04.
GTGTTGTAGG showed a switch fluorescence ratio of 1.01.
Work on TTACGAAGGT yielded a switch fluorescence ratio of 0.969.
For TTCCGCGCT, the switch fluorescence ratio was 1.11.
For GCAGCACAGC, the switch fluorescence ratio was 1.14.
In the case of AGGGCGATGA, the switch fluorescence ratio was 1.01.
TGTCTGCCAG showed a switch fluorescence ratio of 0.985.
ATGACTAAAA was tested, and the switch fluorescence ratio was 1.02.
CGGTACACC was tested, and the switch fluorescence ratio was 1.23.
With GCGGGTAACG the switch fluorescence ratio was 0.985.
For CAGATACCCT, the switch fluorescence ratio was 1.1.
In the case of CAGAGGATAC, the switch fluorescence ratio was 1.05.
Work on TGGAGTTGGG yielded a switch fluorescence ratio of 0.971.
For CTCGACTATG, the switch fluorescence ratio was 0.995.
ATAATGTGCG was tested, and the switch fluorescence ratio was 0.998.
GGTTGTGTTG was tested, and the switch fluorescence ratio was 0.98.
With GGAGCATATG the switch fluorescence ratio was 1.52.
In the case of GACCATTTCG, the switch fluorescence ratio was 0.988.
Work on CTCTCAGAT yielded a switch fluorescence ratio of 0.971.
In the case of TTGGAACAGG, the switch fluorescence ratio was 0.995.
Work on GATAGGATGT yielded a switch fluorescence ratio of 1.02.
Work on ATGTGGCGTA yielded a switch fluorescence ratio of 1.
Sequence AAGATGGATC has a switch fluorescence ratio of 1.01.
AGTGGCAACT gave a switch fluorescence ratio of 1.02.
TTTAAATACT showed a switch fluorescence ratio of 1.25.
With TGATGTTAGG the switch fluorescence ratio was 0.947.
GCCTTGACCC gave a switch fluorescence ratio of 1.02.
AAGTTCTAGA was tested, and the switch fluorescence ratio was 0.976.
ACCAGGCTAC gave a switch fluorescence ratio of 1.19.
With TCTCTTTTTG the switch fluorescence ratio was 0.991.
Work on TGCAAAGTAG yielded a switch fluorescence ratio of 1.03.
GGGATCGTGG showed a switch fluorescence ratio of 0.992.
Sequence TGAGGGCTGG has a switch fluorescence ratio of 1.01.
GAATAATCAA was tested, and the switch fluorescence ratio was 0.988.
For CACATGCTTC, the switch fluorescence ratio was 1.05.
TATTGAAATA gave a switch fluorescence ratio of 1.06.
Work on GACAAGATTT yielded a switch fluorescence ratio of 1.04.
AGGAACATGC was tested, and the switch fluorescence ratio was 1.06.
TGGCCGGAAG was tested, and the switch fluorescence ratio was 0.965.
With AAGTATACGT the switch fluorescence ratio was 1.03.
In the case of AACGACCGGT, the switch fluorescence ratio was 1.01.
For GACGTGCATC, the switch fluorescence ratio was 1.28.
ACTACGTTCC was tested, and the switch fluorescence ratio was 2.17.
GAATTATTTA was tested, and the switch fluorescence ratio was 0.953.
TACCCCGGTT showed a switch fluorescence ratio of 1.12.
Work on ATAGTCGGTG yielded a switch fluorescence ratio of 1.02.
AAAAAGTCCC was tested, and the switch fluorescence ratio was 1.05.
Sequence AAGAGCCATT has a switch fluorescence ratio of 1.
In the case of AGAAATTTGT, the switch fluorescence ratio was 1.03.
Work on AGTGATGTAT yielded a switch fluorescence ratio of 0.959.
For CTTACTTGTT, the switch fluorescence ratio was 1.01.
In the case of TCAACGAGCC, the switch fluorescence ratio was 1.05.
CCACGGGCTA was tested, and the switch fluorescence ratio was 1.15.
With GCGCTATGTT the switch fluorescence ratio was 1.17.
In the case of TGCGTGCACG, the switch fluorescence ratio was 0.974.
CTAGTTCGCA showed a switch fluorescence ratio of 1.08.
CTATTGGGCA gave a switch fluorescence ratio of 0.978.
AGCAGCATCT gave a switch fluorescence ratio of 1.03.
AAAATAGTTG gave a switch fluorescence ratio of 1.02.
Work on ATGAAAAAGC yielded a switch fluorescence ratio of 1.08.
For GCCTTTACT, the switch fluorescence ratio was 0.998.
Sequence TTCACCGTTT has a switch fluorescence ratio of 0.97.
GGAGTAAACA gave a switch fluorescence ratio of 1.02.
With AGTCGTTG the switch fluorescence ratio was 1.
Sequence AATGAAATT has a switch fluorescence ratio of 0.986.
GCGACTATTT showed a switch fluorescence ratio of 0.985.
With CGGGGCGCTT the switch fluorescence ratio was 1.02.
TTGTAAAGAG was tested, and the switch fluorescence ratio was 0.99.
AGGTAGTACC showed a switch fluorescence ratio of 0.998.
In the case of CGGTAGAGCA, the switch fluorescence ratio was 1.04.
Work on TGTTAAAAGG yielded a switch fluorescence ratio of 0.969.
Sequence TCAGCGGATT has a switch fluorescence ratio of 0.988.
AAGCACAGGC was tested, and the switch fluorescence ratio was 1.1.
